Test results reported in the supplement of paper PMC8728848.
Some of the results follow.

Experiments:
Experiment in all cases: glycan array binding signal (z-score within array); higher = stronger binding
Conditions in all cases: glycan notation: IUPAC condensed, linker removed
[1] = target: Neu5Ac(a2-3)Gal(b1-3)[Fuc(a1-4)]GlcNAc(b1-3)Gal(b1-4)[Fuc(a1-3)]GlcNAc
Method in brief: (§1)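 The binding signal is a Z-score computed within each array and averaged over linkers. Arrays of the same protein sequence at different concentrations or buffers were also averaged together. Data originate from 3228 arrays in the Consortium for Functional Glycomics database, kept only where the protein sequence was available.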

[2] = target: Neu5Ac(a2-3)Gal(b1-3)[GlcNAc(b1-6)]GalNAc
Method in brief: as §1

[3] = target: Neu5Ac(a2-3)Gal(b1-3)[Neu5Ac(a2-3)Gal(b1-4)]GlcNAc
Method in brief: as §1

[4] = target: Neu5Ac(a2-3)Gal(b1-3)[Neu5Ac(a2-6)]GalNAc
Method in brief: as §1

[5] = target: Neu5Ac(a2-3)Gal(b1-3)[Neu5Ac(a2-6)]GlcNAc(b1-3)[Fuc(a1-3)[Gal(b1-4)]GlcNAc(b1-6)]Gal(b1-4)Glc
Method in brief: as §1

[6] = target: Neu5Ac(a2-3)Gal(b1-3)]Neu5Ac(a2-3)Gal(b1-4)]GlcNAc
Method in brief: as §1

Neu5Ac(a2-3)Gal(b1-4)Glc = target: Neu5Ac(a2-3)Gal(b1-4)Glc
Method in brief: as §1

[7] = target: Neu5Ac(a2-3)Gal(b1-4)GlcNAc
Method in brief: as §1

[8] = target: Neu5Ac(a2-3)Gal(b1-4)GlcNAc(b1-2)Man
Method in brief: as §1

[9] = target: Neu5Ac(a2-3)Gal(b1-4)GlcNAc(b1-2)Man(a1-3)[GlcNAc(b1-4)][Neu5Ac(a2-3)Gal(b1-4)GlcNAc(b1-2)Man(a1-6)]Man(b1-4)GlcNAc(b1-4)GlcNAc
Method in brief: as §1

[10] = target: Neu5Ac(a2-3)Gal(b1-4)GlcNAc(b1-2)Man(a1-3)[Neu5Ac(a2-3)Gal(b1-4)GlcNAc(b1-2)Man(a1-6)]Man(b1-4)GlcNAc(b1-4)GlcNAc
Method in brief: as §1

[11] = target: Neu5Ac(a2-3)Gal(b1-4)GlcNAc(b1-2)Man(a1-3)[Neu5Ac(a2-3)Gal(b1-4)GlcNAc(b1-2)Man(a1-6)]Man(b1-4)GlcNAc(b1-4)[Fuc(a1-6)]GlcNAc
Method in brief: as §1

[12] = target: Neu5Ac(a2-3)Gal(b1-4)GlcNAc(b1-2)Man(a1-3)[Neu5Ac(a2-6)Gal(b1-4)GlcNAc(b1-2)Man(a1-6)]Man(b1-4)GlcNAc(b1-4)GlcNAc
Method in brief: as §1

[13] = target: Neu5Ac(a2-3)Gal(b1-4)GlcNAc(b1-2)[Neu5Ac(a2-3)Gal(b1-4)GlcNAc(b1-4)]Man(a1-3)[GlcNAc(b1-4)][Neu5Ac(a2-3)Gal(b1-4)GlcNAc(b1-2)[Neu5Ac(a2-3)Gal(b1-4)GlcNAc(b1-6)]Man(a1-6)]Man(b1-4)GlcNAc(b1-4)GlcNAc
Method in brief: as §1

[14] = target: Neu5Ac(a2-3)Gal(b1-4)GlcNAc(b1-2)[Neu5Ac(a2-3)Gal(b1-4)GlcNAc(b1-4)]Man(a1-3)[GlcNAc(b1-4)][Neu5Ac(a2-3)Gal(b1-4)GlcNAc(b1-4)Man(a1-6)]Man(b1-4)GlcNAc(b1-4)GlcNAc
Method in brief: as §1

[15] = target: Neu5Ac(a2-3)Gal(b1-4)GlcNAc(b1-2)[Neu5Ac(a2-3)Gal(b1-4)GlcNAc(b1-6)]Man(a1-6)[Neu5Ac(a2-3)Gal(b1-4)GlcNAc(b1-2)Man(a1-3)]Man(b1-4)GlcNAc(b1-4)GlcNAc
Method in brief: as §1

[16] = target: Neu5Ac(a2-3)Gal(b1-4)GlcNAc(b1-2)[Neu5Ac(a2-3)Gal(b1-4)GlcNAc(b1-6)]Man(a1-6)[Neu5Ac(a2-3)Gal(b1-4)GlcNAc(b1-2)Man(a1-3)][GlcNAc(b1-4)]Man(b1-4)GlcNAc(b1-4)GlcNAc
Method in brief: as §1

[17] = target: Neu5Ac(a2-3)Gal(b1-4)GlcNAc(b1-3)Gal
Method in brief: as §1

[18] = target: Neu5Ac(a2-3)Gal(b1-4)GlcNAc(b1-3)Gal(b1-3)GlcNAc
Method in brief: as §1

[19] = target: Neu5Ac(a2-3)Gal(b1-4)GlcNAc(b1-3)Gal(b1-4)GlcNAc
Method in brief: as §1

[20] = target: Neu5Ac(a2-3)Gal(b1-4)GlcNAc(b1-3)Gal(b1-4)GlcNAc(b1-2)Man(a1-3)[Neu5Ac(a2-3)Gal(b1-4)GlcNAc(b1-3)Gal(b1-4)GlcNAc(b1-2)Man(a1-6)]Man(b1-4)GlcNAc(b1-4)GlcNAc
Method in brief: as §1

[21] = target: Neu5Ac(a2-3)Gal(b1-4)GlcNAc(b1-3)Gal(b1-4)GlcNAc(b1-3)Gal(b1-4)GlcNAc
Method in brief: as §1

[22] = target: Neu5Ac(a2-3)Gal(b1-4)GlcNAc(b1-3)Gal(b1-4)GlcNAc(b1-3)Gal(b1-4)GlcNAc(b1-2)Man(a1-3)[Neu5Ac(a2-3)Gal(b1-4)GlcNAc(b1-3)Gal(b1-4)GlcNAc(b1-3)Gal(b1-4)GlcNAc(b1-2)Man(a1-6)]GalNAc
Method in brief: as §1

[23] = target: Neu5Ac(a2-3)Gal(b1-4)GlcNAc(b1-3)Gal(b1-4)GlcNAc(b1-3)GalNAc
Method in brief: as §1

[24] = target: Neu5Ac(a2-3)Gal(b1-4)GlcNAc(b1-3)Gal(b1-4)GlcNAc(b1-3)[Neu5Ac(a2-3)Gal(b1-4)GlcNAc(b1-3)Gal(b1-4)GlcNAc(b1-6)]GalNAc
Method in brief: as §1

[25] = target: Neu5Ac(a2-3)Gal(b1-4)GlcNAc(b1-3)Gal(b1-4)GlcNAc(b1-6)[Gal(b1-3)]GalNAc
Method in brief: as §1

[26] = target: Neu5Ac(a2-3)Gal(b1-4)GlcNAc(b1-3)Gal(b1-4)[Fuc(a1-3)]GlcNAc
Method in brief: as §1

[27] = target: Neu5Ac(a2-3)Gal(b1-4)GlcNAc(b1-3)GalNAc
Method in brief: as §1

[28] = target: Neu5Ac(a2-3)Gal(b1-4)GlcNAc(b1-3)[Neu5Ac(a2-3)Gal(b1-4)GlcNAc(b1-6)]GalNAc
Method in brief: as §1

[29] = target: Neu5Ac(a2-3)Gal(b1-4)GlcNAc(b1-6)GalNAc
Method in brief: as §1

[30] = target: Neu5Ac(a2-3)Gal(b1-4)GlcNAc(b1-6)[Gal(b1-3)]GalNAc
Method in brief: as §1

[31] = target: Neu5Ac(a2-3)Gal(b1-4)GlcNAc(b1-6)[Neu5Ac(a2-3)Gal(b1-3)]GalNAc
Method in brief: as §1

[32] = target: Neu5Ac(a2-3)Gal(b1-4)GlcNAc6S
Method in brief: as §1

[33] = target: Neu5Ac(a2-3)Gal(b1-4)[Fuc(a1-3)]GlcNAc
Method in brief: as §1

[34] = target: Neu5Ac(a2-3)Gal(b1-4)[Fuc(a1-3)]GlcNAc(b1-2)Man
Method in brief: as §1

[35] = target: Neu5Ac(a2-3)Gal(b1-4)[Fuc(a1-3)]GlcNAc(b1-3)Gal
Method in brief: as §1

[36] = target: Neu5Ac(a2-3)Gal(b1-4)[Fuc(a1-3)]GlcNAc(b1-3)Gal(b1-4)GlcNAc
Method in brief: as §1

[37] = target: Neu5Ac(a2-3)Gal(b1-4)[Fuc(a1-3)]GlcNAc(b1-3)Gal(b1-4)[Fuc(a1-3)]GlcNAc(b1-3)Gal(b1-4)[Fuc(a1-3)]GlcNAc
Method in brief: as §1

B1: UDA (Urtica dioica), P11218 (protein)
chain: MMMRFLSAVVIMSSAMAVGLVSAQRCGSQGGGGTCPALWCCSIWGWCGDSEPYCGRTCENKCWSGERSDHRCGAAVGNPPCGQDRCCSVHGWCGGGNDYCSGSKCQYRCSSSVRGPRVALSGNSTANSIGNVVVTEPLFDQMFSHRKDCPSQGFYSYHSFLVAAESFPAFGTIGDVATRKREVAAFLAHISQATSGERSDVENPHAWGLCHINTTTVTENDFCTSSDWPCAAGKKYSPRGPIQLTHNFNYGLAGQAIGEDLIQNPDLVEKDPIISFKTALWFWMSQHDNKPSCHDIVLNANSAANRIPNKGVIGNIISRAFGHDDFAVRSSSIGFYKRYCDMLGVSYGHDLKYWFDNTPSSEFQRIQMRVAA
glycan array binding signal (z-score) [1]: -0.176
glycan array binding signal (z-score) [2]: -0.176
glycan array binding signal (z-score) [3]: -0.25
glycan array binding signal (z-score) [4]: -0.181
glycan array binding signal (z-score) [5]: -0.177
glycan array binding signal (z-score) [6]: -0.174
glycan array binding signal (z-score) (Neu5Ac(a2-3)Gal(b1-4)Glc): -0.184
glycan array binding signal (z-score) [7]: 0.435
glycan array binding signal (z-score) [8]: -0.173
glycan array binding signal (z-score) [9]: -0.174
glycan array binding signal (z-score) [10]: -0.168
glycan array binding signal (z-score) [11]: -0.169
glycan array binding signal (z-score) [12]: -0.175
glycan array binding signal (z-score) [13]: -0.177
glycan array binding signal (z-score) [14]: -0.18
glycan array binding signal (z-score) [15]: -0.172
glycan array binding signal (z-score) [16]: -0.18
glycan array binding signal (z-score) [17]: -0.182
glycan array binding signal (z-score) [18]: -0.178
glycan array binding signal (z-score) [19]: -0.07
glycan array binding signal (z-score) [20]: -0.109
glycan array binding signal (z-score) [21]: 0.74
glycan array binding signal (z-score) [22]: -0.024
glycan array binding signal (z-score) [23]: -0.173
glycan array binding signal (z-score) [24]: -0.161
glycan array binding signal (z-score) [25]: -0.163
glycan array binding signal (z-score) [26]: -0.178
glycan array binding signal (z-score) [27]: -0.179
glycan array binding signal (z-score) [28]: -0.177
glycan array binding signal (z-score) [29]: -0.179
glycan array binding signal (z-score) [30]: -0.172
glycan array binding signal (z-score) [31]: -0.172
glycan array binding signal (z-score) [32]: 0.814
glycan array binding signal (z-score) [33]: -0.19
glycan array binding signal (z-score) [34]: -0.182
glycan array binding signal (z-score) [35]: -0.189
glycan array binding signal (z-score) [36]: -0.171
glycan array binding signal (z-score) [37]: -0.174
